Assay results reported in PubChem BioAssay AID504333 (National Center for Advancing Translational Sciences (NCATS), 2011).
Among all 360,000 compounds or so, about 16,000 (4.4%) were called active. This list was built around the results that the source calls inconclusive (neither active nor inactive); the mix of calls is not that of the screen. Calls come from the whole dose curve; as a rule, active = well fitted inhibition curve with a large enough effect; inconclusive = small, poorly fitted or top-dose-only effect; inactive = no such curve, though single readings can be large or run the other way. Potencies beside an inconclusive call are fits to weak or partial responses and may not hold up.

Each molecule was assayed against Bromodomain adjacent to zinc finger domain protein 2B (Homo sapiens) (UniProt Q9UIF8) (assay: qHTS Assay for Inhibitors of BAZ2B). Conditions: AlphaScreen BAZ2B-H3K14Ac peptide displacement; series mostly up to 114 µM.
Sequence of UniProt Q9UIF8 (Q9UIF8 whole entry, looked up, the tested form may be a part): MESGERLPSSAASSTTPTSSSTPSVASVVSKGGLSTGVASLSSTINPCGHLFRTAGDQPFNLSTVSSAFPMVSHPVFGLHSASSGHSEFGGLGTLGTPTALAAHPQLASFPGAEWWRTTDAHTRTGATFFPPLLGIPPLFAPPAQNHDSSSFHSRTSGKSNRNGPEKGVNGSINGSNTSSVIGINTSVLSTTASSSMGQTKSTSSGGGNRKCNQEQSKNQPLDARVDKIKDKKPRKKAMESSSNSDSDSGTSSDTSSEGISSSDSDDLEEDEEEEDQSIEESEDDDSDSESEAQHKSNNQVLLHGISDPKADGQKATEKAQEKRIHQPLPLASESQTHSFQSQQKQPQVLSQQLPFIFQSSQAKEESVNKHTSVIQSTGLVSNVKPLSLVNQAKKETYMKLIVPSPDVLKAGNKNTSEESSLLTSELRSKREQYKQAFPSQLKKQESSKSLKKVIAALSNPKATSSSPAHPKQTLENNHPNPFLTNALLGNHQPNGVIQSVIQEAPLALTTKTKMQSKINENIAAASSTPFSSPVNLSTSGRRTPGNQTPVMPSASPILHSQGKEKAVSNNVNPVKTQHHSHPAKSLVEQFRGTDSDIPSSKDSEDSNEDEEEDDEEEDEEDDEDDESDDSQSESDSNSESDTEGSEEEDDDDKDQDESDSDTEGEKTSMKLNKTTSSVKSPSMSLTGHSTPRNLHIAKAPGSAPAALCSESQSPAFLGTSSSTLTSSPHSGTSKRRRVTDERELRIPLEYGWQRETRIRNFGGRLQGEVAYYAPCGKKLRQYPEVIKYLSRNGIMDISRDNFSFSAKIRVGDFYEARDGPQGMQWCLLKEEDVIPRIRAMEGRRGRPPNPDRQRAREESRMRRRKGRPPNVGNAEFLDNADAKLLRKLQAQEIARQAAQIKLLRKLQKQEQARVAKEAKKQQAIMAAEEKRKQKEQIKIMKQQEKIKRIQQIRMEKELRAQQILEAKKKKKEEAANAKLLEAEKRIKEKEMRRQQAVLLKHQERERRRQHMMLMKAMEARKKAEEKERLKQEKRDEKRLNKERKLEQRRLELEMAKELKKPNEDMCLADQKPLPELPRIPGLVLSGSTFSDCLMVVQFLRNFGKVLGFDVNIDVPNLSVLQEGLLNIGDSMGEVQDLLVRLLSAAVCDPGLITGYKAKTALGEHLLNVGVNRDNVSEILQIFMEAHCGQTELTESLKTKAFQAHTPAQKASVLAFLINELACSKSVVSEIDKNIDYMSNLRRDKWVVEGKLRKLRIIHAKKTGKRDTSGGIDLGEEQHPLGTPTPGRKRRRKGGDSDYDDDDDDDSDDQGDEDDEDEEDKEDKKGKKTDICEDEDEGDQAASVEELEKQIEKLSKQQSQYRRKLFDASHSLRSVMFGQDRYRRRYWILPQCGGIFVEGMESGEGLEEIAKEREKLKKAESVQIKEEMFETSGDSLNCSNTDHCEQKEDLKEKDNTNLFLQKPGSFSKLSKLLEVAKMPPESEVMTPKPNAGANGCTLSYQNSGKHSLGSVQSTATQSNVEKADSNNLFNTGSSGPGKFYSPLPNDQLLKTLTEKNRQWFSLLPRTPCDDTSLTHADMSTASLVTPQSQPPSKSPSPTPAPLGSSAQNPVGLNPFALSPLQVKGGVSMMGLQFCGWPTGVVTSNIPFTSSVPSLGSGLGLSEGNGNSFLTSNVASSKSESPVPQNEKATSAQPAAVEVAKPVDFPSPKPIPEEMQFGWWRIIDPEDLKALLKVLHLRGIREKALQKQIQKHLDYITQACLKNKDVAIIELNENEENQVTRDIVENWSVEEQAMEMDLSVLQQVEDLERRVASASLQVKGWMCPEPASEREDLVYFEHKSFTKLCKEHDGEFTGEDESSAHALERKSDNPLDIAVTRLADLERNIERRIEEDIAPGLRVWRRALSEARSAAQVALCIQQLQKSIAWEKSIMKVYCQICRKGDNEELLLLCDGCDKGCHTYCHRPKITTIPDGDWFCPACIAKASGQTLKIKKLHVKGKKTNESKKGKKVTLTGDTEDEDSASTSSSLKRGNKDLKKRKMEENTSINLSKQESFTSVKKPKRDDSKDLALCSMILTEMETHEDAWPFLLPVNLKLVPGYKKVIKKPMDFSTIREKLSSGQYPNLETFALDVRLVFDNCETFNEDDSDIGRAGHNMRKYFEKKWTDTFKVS
How it was run: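 Inhibition is scored as reduced AlphaScreen emission. The BAZ2B/b-H3(5-23)K14Ac complex (50 nM each) in PBS pH 7.4, 0.01% Tween-20 meets compound (up to 110 uM) for 30 min at RT before bead addition.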
Note: nearly all actives have a fitted effect of over 60% in size.
Potency is the fitted concentration of half-maximal effect; tags give direction and shape of the fitted curve.

Structure (SMILES) | Potency
Cc1ccc(C(=O)Nc2ccncc2)o1 | inconclusive: 89.1 µM [inhibitor, single point]
CCN(CC(=O)Nc1c(F)cccc1F)C(=O)Cc1ccsc1 | inactive
C#CCOCCOCCOCCNc1nc(N2CCN(C(=O)[C@H](Cc3ccc(O)cc3)n3cc([C@@H](N)C(C)CC)nn3)CC2)nc(N2CCN(C(=O)[C@H](Cc3cc4ccccc4[nH]3)n3cc([C@@H](N)CC(C)C)nn3)CC2)n1 (stereo partly drawn) | active: 35.5 µM
Nc1ccc(S(=O)(=O)Nc2nccc(/C=C/c3ccc(Cl)cc3Cl)n2)cc1 | inactive
CCOC(=O)C1CCCN(Cc2nc(N)nc(Nc3ccc(Cl)cc3)n2)C1 (stereo not drawn) | active: 50.1 µM
Nc1c(C(=O)Nc2ccccc2)nnn1Cc1ccc(F)cc1Cl | inconclusive: 79.4 µM [inhibitor, single point]
c1csc(-c2cn3c(n2)SCC3)c1 | inconclusive: 89.1 µM [inhibitor, single point]
COc1cccc(NC(=O)C(Cc2ccccc2)n2cccc2)c1 (stereo not drawn) | inconclusive: 50.1 µM [inhibitor, partial curve]
CCOC(=O)c1ccc(NC(=O)N2CCOCC2)cc1 | inconclusive: 89.1 µM [inhibitor, single point]
CCOC(=O)c1c(C)nc2c(c1-c1ccccc1)C(=O)c1ccccc1-2 | inconclusive: 25.1 µM [inhibitor, full curve]
CN(C(=O)CN1C(=O)/C(=C/c2ccccc2F)SC1=S)C1CCS(=O)(=O)C1 (stereo not drawn) | active: 44.7 µM
O=C(Cc1ccc(Br)cc1)Nc1ncc([N+](=O)[O-])s1 | active: 50.1 µM
CCOc1cccc(=O)c2c(C)oc(C)c12 | inconclusive: 100 µM [inhibitor, single point]
O=C(NCc1ccccc1Cl)NCc1noc2ccccc12 | inactive
Cc1c(C(=O)OCC(=O)Nc2ccc3c(c2)OCO3)cccc1[N+](=O)[O-] | inconclusive: 89.1 µM [inhibitor, single point]
C=CCN1C(=O)/C(=C/c2ccc(O)c(OC)c2)S/C1=N/c1nccs1 | inconclusive: 50.1 µM [inhibitor, partial curve]
COc1ccc(Cn2c(=O)c3oc4ccccc4c3n(Cc3cccc(C)c3)c2=O)cc1 | inactive
CC(Sc1nnc(COc2ccc3ccccc3c2)n1C)C(=O)O (stereo not drawn) | inconclusive: 89.1 µM [inhibitor, single point]
Cc1ccc(-n2c(C)cc(/C=N/NC(N)=S)c2C)cc1 | inconclusive: 70.8 µM [inhibitor, single point]
CN(C)CCCN(C(=O)c1ccc2c(c1)OCCO2)c1nc2ccccc2s1 | inactive
CCc1cccc(CC)c1NC(=S)N1CCn2cccc2C1c1cccnc1 (stereo not drawn) | inconclusive: 79.4 µM [inhibitor, single point]
N/C(=N\OC(=O)CC1CCCCC1)c1ccc([N+](=O)[O-])cc1 | inconclusive: 89.1 µM [inhibitor, single point]
CCOc1ccc(CCNC(=O)c2ccc3c(=O)n4c(nc3c2)CCCCC4)cc1 | inactive
Cc1ccc(-n2c(N)c(C(=O)Nc3c(C)n(C)n(-c4ccccc4)c3=O)c3nc4ccccc4nc32)cc1 | inconclusive: 79.4 µM [inhibitor, single point]
N#Cc1c(Sc2ncc(C(F)(F)F)cc2Cl)nsc1C/C=N\OCc1ccccc1Br | active: 44.7 µM

Structure (SMILES) | Potency
Cc1ccsc1CN(C(=O)c1oc2cc(Br)ccc2c1C)C1CCS(=O)(=O)C1 (stereo not drawn) | inactive
O=C(Nc1nc2c(s1)CN(Cc1ccccc1)CC2)C1CCC1 | inconclusive: 79.4 µM [inhibitor, partial curve]
Cc1cc(/C=N/NC(=O)c2ccncc2)c(C)n1-c1cccc(C(F)(F)F)c1 | inconclusive: 44.7 µM [inhibitor, partial curve]
Cc1ccccc1-n1c(C)nc2ccccc21 | inactive
COC(=O)Cn1c(=O)c2cccn2c2cccnc21 | inactive
O=C(Oc1ccc(C(=S)N2CCOCC2)cc1)c1cc([N+](=O)[O-])cc([N+](=O)[O-])c1 | inactive
CC(C)CCC(CCNCc1ccccn1)c1ccc(Cl)cc1 (stereo not drawn) | inconclusive: 79.4 µM [inhibitor, single point]
Cc1ccccc1OCC(=O)NC(=S)Nc1ccc2c3c(cccc13)CC2 | inactive
CC(C)N1C(=S)N(Cc2ccco2)C(=O)C1CC(=O)Nc1ccccc1 (stereo not drawn) | inconclusive: 79.4 µM [inhibitor, single point]
Cc1cc(C)c2c(CC(=O)O)c(C)[nH]c2c1 | inactive
N#C/C(=C\c1ccc[nH]1)Sc1nc2ccccc2s1 | inconclusive: 35.5 µM [inhibitor, full curve]
Cc1n[nH]c(=O)c2c(NC(=O)COC(=O)/C=C/c3cccc(C(F)(F)F)c3)oc(C)c12 | inactive
COc1ccc(N2CCN(C(=O)COC(=O)COc3cc(C)cc(C)c3)CC2)cc1 | inconclusive: 89.1 µM [inhibitor, single point]
O=C(Oc1c(-c2ccco2)oc2ccccc2c1=O)c1cccnc1 | inconclusive: 89.1 µM [inhibitor, single point]
CC(=O)Nc1ccc(S(=O)(=O)Oc2ccc(C(=S)N3CCC(O)CC3)cc2)cc1 | inactive
COc1cc(Cl)c(C)cc1NC(=O)c1ccc2c(SCC(=O)O)c3c(nc2c1)CCCC3 | inconclusive: 50.1 µM [inhibitor, partial curve]
O=C(CSc1n[nH]c(-c2ccccc2)n1)NCCCc1ccccc1 | inactive
Cc1[nH]c2ccccc2c1C(C[N+](=O)[O-])c1ccco1 (stereo not drawn) | inconclusive: 50.1 µM [inhibitor, partial curve]
CC(=O)N1CCN(S(=O)(=O)c2cccc(C(=O)Nc3nc4c(s3)CCCC4)c2)CC1 | inconclusive: 100 µM [inhibitor, single point]
Cn1c(N=NC(=O)c2ccccc2)c(O)c2ccccc21 | active: 22.4 µM
COc1ccc(N(C)S(=O)(=O)c2cccc(C(=O)Nc3ccc4c(c3)OCCO4)c2)cc1 | inconclusive: 79.4 µM [inhibitor, single point]
Cc1cccc(NC(=O)C2CCN(S(=O)(=O)c3c(C)noc3/C=C/c3ccco3)CC2)n1 | inconclusive: 20 µM [inhibitor, full curve, poor fit]
CN1CCc2nc(NC(=O)COc3ccc4ccccc4c3)sc2C1 | inconclusive: 63.1 µM [inhibitor, partial curve]
O=C(NC1CCCC1)C(c1ccc(F)cc1)N(Cc1ccc(F)cc1)C(=O)CCl (stereo not drawn) | inactive
COc1ccc(C/C(C)=N/NC(=O)c2cccnc2)cc1 | inconclusive: 89.1 µM [inhibitor, single point]

Structure (SMILES) | Potency
Cc1cc(C)n(C(=O)c2cc([N+](=O)[O-])cc([N+](=O)[O-])c2)n1 | inconclusive: 89.1 µM [inhibitor, single point]
CN1CCN(c2ccc([N+](=O)[O-])cc2C(=O)N2CCOCC2)CC1 | inconclusive: 89.1 µM [inhibitor, single point]
Cc1csc(=O)n1CC(=O)Nc1ccc(Cl)cc1F | inactive
CN1CCc2nc3sc(C(=O)NCc4ccccc4)c(N)c3cc2C1 | inconclusive: 56.2 µM [inhibitor, partial curve]
CCNc1nc(NC(C)C)nc(N(C)C#N)n1 | inactive
COc1cc2c3c(c1OC)C1(C=CC(=O)C=C1)CC3N(C(=O)CCC(=O)O)CC2 (stereo not drawn) | inconclusive: 79.4 µM [inhibitor, single point]
O=c1cc(O)sc2ccccc12 | inactive
COc1cccc(-n2cc(-c3ccc(F)cc3)[nH]c2=S)c1 | active: 50.1 µM
Cc1[nH]n(-c2ccccc2)c(=S)c1C=Nc1cccc([N+](=O)[O-])c1 | active: 22.4 µM
CCn1cc(/C=C(\NC(=O)c2ccccc2F)C(=O)NCCCn2ccnc2)c2ccccc21 | inconclusive: 44.7 µM [inhibitor, partial curve]
CC(C)OC(=O)c1cn(-c2ccccc2)nc1-c1ccco1 | inactive
CC(=O)Nc1ccc(NC(=O)C2CCCN2S(=O)(=O)c2ccc3c(c2)CCCC(=O)N3)cc1 (stereo not drawn) | inconclusive: 3.98 µM [inhibitor, single point]
Cc1[nH]n(-c2ncc(-c3ccccc3)s2)c(=O)c1C(c1ccc(Cl)cc1)C(C#N)C#N (stereo not drawn) | active: 39.8 µM
N=C(N)SCc1nc2ccccc2c(=O)n1-c1ccccc1Cl | inconclusive: 79.4 µM [inhibitor, single point]
O=C(/C=C/c1ccc(F)cc1)NCC1(c2ccccc2)CCOCC1 | inactive
CC1(C)Cc2c(c(N3CCOCC3)nc3sc4c(NCCN5CCOCC5)nnnc4c23)CS1 | inconclusive: 50.1 µM [inhibitor, partial curve]
COc1cc(/C=C2/SC(=S)N(C)C2=O)ccc1OC(=O)c1ccco1 | inconclusive: 89.1 µM [inhibitor, single point]
Cc1ccnc(NC(=O)C2CC(=O)N(c3ccc4c(c3)OCCO4)C2)c1 (stereo not drawn) | active: 79.4 µM
Cc1c(C)n(CC(O)CNCCO)c2ccccc12 (stereo not drawn) | active: 44.7 µM
Cc1[nH]c2ccccc2c1/C=N/Nc1ccc(F)cc1F | active: 44.7 µM
O=C(Nc1nnc(S(=O)(=O)N2CCOCC2)s1)c1ccccc1Cl | inconclusive: 1.58 µM [inhibitor, full curve, poor fit]
O=C(NCc1ccco1)c1cc(NS(=O)(=O)c2cccc([N+](=O)[O-])c2)ccc1O | inconclusive: 44.7 µM [inhibitor, partial curve]
Cc1[nH][nH]c(=O)c1C(c1ccc(-c2ccc(Cl)c(Cl)c2)o1)c1c(C)[nH][nH]c1=O | inconclusive: 44.7 µM [inhibitor, partial curve]
